From PubChem BioAssay AID1508642 (National Center for Advancing Translational Sciences (NCATS), 2021)
In all, about 43,000 compounds went through this assay and about 200 (0.47%) were called active. Inconclusive results (about 12%) are left out. The call rests on the fitted dose curve; in most records, active means well fitted cell-killing curve with a large enough effect; inconclusive means small, poorly fitted or top-dose-only effect, or effect the other way; inactive means flat fitted curve, though single readings scatter. Some of the results follow.

assay: Cell viability qHTS assay in S16 Pmp22-F2sN cells; settings: S16 Pmp22-F2sN Schwann cells viability, CellTiter-Glo, 24 h; series mostly up to 57.5 µM; activity change, negative = cytotoxicity: at the top concentration; further: nearly all actives have a fitted effect of over 65% in size
Procedure, shortened: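 Used to flag compounds lowering reporter output through toxicity, this quantitative HTS measures ATP-based CellTiter-Glo luminescence in S16 Pmp22-F2sN Schwann cells after 24 h compound exposure at 37C.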
On the % scale 0 is the no-effect control and ±100 the full control effect.

Row | Compound | activity change, negative = cytotoxicity
1 | Oc1ccc(Nc2nc3ccccc3n3cnnc23)cc1 | inactive: -2.42%
2 | CCOCCCNC(=O)CN1C(=O)COc2ccc(S(=O)(=O)N3CCCCCC3)cc21 | inactive: -0.156%
3 | CCCCc1cc(=O)oc2cc(C)c3c(C(C)(C)C)coc3c12 | inactive: -16.4%
4 | COc1ccc(C)cc1NC(=O)N1CCN(S(=O)(=O)c2ccc3c(ccn3C)c2)CC1 | inactive: -3.97%
5 | COc1ccc(NC(=O)c2nc(S(C)(=O)=O)ncc2N(Cc2ccc(C)cc2)Cc2ccco2)cc1Cl | inactive: 0.64%
6 | COc1cccc(CNC(=O)c2cc(-c3ccc(Cl)s3)nc3ccccc23)c1 | inactive: 1.29%
7 | Cc1cccc(CSc2nc3c(sc4ccccc43)c(=O)n2CCC(=O)NC(C)C)c1 | inactive: -9.66%
8 | Cc1cccc(NC(=O)CSc2nc3ccc(NC(=O)COc4ccccc4C)cc3s2)c1 | inactive: 26.1%
9 | CCCNC(=O)CCC(=O)N1Cc2cccc(OC)c2Oc2ncccc21 | inactive: -0.925%
10 | CC1CN(C(=O)NCc2ccccc2)c2cc(Cl)ccc2O1 (stereo not given) | inactive: -7.33%
11 | O=C(NCc1ccc(Cl)cc1)C1CCN(c2nn3cc(-c4ccc(F)cc4)nc3s2)CC1 | inactive: 3.38%
12 | Cc1c(C(=O)OCCOc2ccccc2)[nH]c2c1C(=O)CC(c1ccc(C(C)(C)C)cc1)C2 (stereo not given) | inactive: 0.518%
13 | CCn1c2c(c(=O)n3ncc(C(=O)Nc4cc(Cl)ccc4OC)c13)CN(Cc1ccc(OC)cc1)CC2 | inactive: 10.4%
14 | COc1ccccc1N1CCN(C(=O)c2cc(-c3ccc(C)c(F)c3)on2)CC1 | inactive: 4.83%
15 | COCCCNC(=O)CN1C(=O)c2cccnc2Sc2ccccc21 | inactive: 1.17%
16 | O=C(Nc1cccc(C(F)(F)F)c1)Nc1nnc(N2CCCCCC2)s1 | inactive: -9.99%
17 | CC(=O)c1cccc(NC(=O)CN2C(=O)CCc3cc(S(=O)(=O)N4CCCCC4)ccc32)c1 | inactive: -11.4%
18 | CCCCN1CC(c2nc3ccccc3n2CCCCOc2cc(C)cc(C)c2)CC1=O (stereo not given) | inactive: -20.4%
19 | CCOc1ccc(S(=O)(=O)N2Cc3ccccc3CC2C(=O)Nc2ccc(NC(C)=O)cc2)cc1 (stereo not given) | inactive: -26.3%
20 | CCN(CC)CCNC(=O)C(=O)Nc1c2c(nn1-c1ccc(F)cc1)CSC2 | inactive: 18.9%
21 | COc1cccc2cc(C(=O)Nc3ccc(CC(=O)O)cc3)c(=O)oc12 | inactive: 4.41%
22 | CCc1ccc(NC(=O)CSc2nnc3[nH]c(=O)cc(-c4ccccc4)n23)cc1 | inactive: -11.7%
23 | CCOC(=O)c1c(C)[nH]c(CCC(=O)Nc2ccccc2C(F)(F)F)c1C | inactive: 2.21%
24 | O=C(CCS(=O)(=O)c1cc2c(cc1Cl)NC(=O)CO2)NCCc1ccccc1 | inactive: 17.9%

Row | Compound | activity change, negative = cytotoxicity
25 | COc1ccc(C(=O)Nc2ccc(S(=O)(=O)Nc3cc(C)nc(C)n3)cc2)cc1 | inactive: 2.01%
26 | CCCS(=O)(=O)N1CC(=O)N(c2cccc(F)c2)C(C)(C(=O)NC2CCCCCC2)C1 (stereo not given) | inactive: -5.44%
27 | CCN(C(=O)CCc1nc(-c2ccc(C)cc2)no1)c1cccc(C(F)(F)F)c1 | inactive: 1.7%
28 | COc1ccc(CNC(=O)c2ccc3c(O)c(S(=O)(=O)c4ccccc4)c(=O)[nH]c3c2)cc1 | inactive: -2.07%
29 | Cc1cccc(N2CCN(C(=O)c3nn(C)c4c3CS(=O)(=O)c3ccccc3-4)CC2)c1C | inactive: -2.82%
30 | COc1ccc(Cn2ccc3nc(C)c(C(=O)N4CCN(c5cccc(OC)c5)CC4)cc3c2=O)cc1 | inactive: -14%
31 | COc1ccc(NC(=O)c2c(NC(=O)C(F)(F)F)sc3c2CCCCC3)cc1 | inactive: 23.9%
32 | COc1cc(CNc2ccc3[nH]c(=O)[nH]c3c2)ccc1OCc1ccc(F)cc1Cl | inactive: -13.7%
33 | COc1ccc(CN2CCc3c(c(=O)n4ncc(C(=O)N5CCN(c6ccccc6F)CC5)c4n3C)C2)cc1 | inactive: 1.4%
34 | COC(=O)c1ccc2c(=O)n3nc(Nc4ccc(F)cc4F)sc3nc2c1 | inactive: 1.91%
35 | CCN(CC)S(=O)(=O)c1ccc2c(c1)N(CC(=O)N1CCN(c3cccc(C)c3C)CC1)C(=O)CO2 | inactive: -11.9%
36 | Cc1cc(C)c(NC(=O)Cn2c(=O)n(CCC(=O)N3CCc4ccccc4C3)c(=O)c3ccccc32)c(C)c1 | inactive: -1.66%
37 | Clc1ccc(-n2ncc3c(NC4CCCC4)ncnc32)cc1 | inactive: 12.2%
38 | Cc1c(CNC2CCCCC2)c(C(=O)O)c(C)n1Cc1ccc(Cl)cc1 | inactive: 3.27%
39 | Cc1ccc(Cn2c3ccccc3c3cnn(CC(=O)Nc4cc(Cl)ccc4C)c(=O)c32)cc1 | inactive: 8.59%
40 | Cn1nnnc1SCCCNCc1ccccc1OCc1ccc(Cl)cc1 | inactive: -22.8%
41 | COc1ccc(Nc2ncnc3sc4c(c23)CCCC4)cc1 | inactive: -5.62%
42 | O=C(NCc1ccccc1Cl)c1ccc(CS(=O)(=O)c2ccc(Br)cc2)o1 | inactive: 3.75%
43 | COc1ccc(C)cc1NC(=O)Nc1nnc(N2CCCCC2)s1 | inactive: 6.53%
44 | CCOC(=O)C1CCCN(c2nc3c(S(=O)(=O)c4ccc(CC)cc4)nnn3c3ccc(Cl)cc23)C1 (stereo not given) | inactive: -2.25%
45 | COc1ccc(N2CCN(C(=O)c3cccn3-c3nnc(N4CCCC4)s3)CC2)cc1 | inactive: 4.07%
46 | O=C(CSc1n[nH]c(-c2ccccc2Cl)n1)NCCc1ccccc1 | inactive: -4.47%
47 | CCc1nn(CCCC(=O)NCc2ccc(OC(C)C)cc2)c(=O)c2cc3occc3n12 | inactive: 14%
48 | CCOc1cc(CNS(=O)(=O)c2ccc3c(c2)C(C)(C)C(=O)N3)cc(OCC)c1OCC | inactive: 11.4%

Row | Compound | activity change, negative = cytotoxicity
49 | CN1CCN(C(=O)C(=O)Nc2c3c(nn2-c2ccc(Cl)cc2)CSC3)CC1 | inactive: 2.69%
50 | Cc1c(C(=O)N2CCC(C)CC2)c(S(=O)(=O)N(Cc2ccccc2)C(C)(C)C)c(C)n1C | inactive: 8.86%
51 | COC(=O)c1ccc(C(=O)OC)c(NC(=O)CN(c2ccccc2)S(=O)(=O)N(C)C)c1 | inactive: 0.457%
52 | CCOc1ccccc1CNC(=O)C1CCCN(c2nnc(C)c3c(C)n(-c4ccccc4)nc23)C1 (stereo not given) | inactive: -18.5%
53 | COc1cccc(CNC(=O)CSC2=Nc3ccccc3N=C(c3ccc(F)cc3)C2)c1 | inactive: 6.85%
54 | Cc1nn2c(=O)cc(COC(=O)c3cccc(NC(=O)COc4ccccc4C)c3)nc2s1 | inactive: 0.0649%
55 | CCOCCCn1c(=N)c(C(=O)NCc2cccnc2)cc2c(=O)n3ccccc3nc21 | inactive: 27.1%
56 | CCN(CC)C(=O)c1ccc2c(c1)N(Cc1ccc(C(F)(F)F)cc1)C(=O)c1ccccc1S2 | inactive: 25.3%
57 | Cc1ccc(N2C(=O)CCSC23C(=O)N(Cc2ccccc2)c2ccccc23)cc1 (stereo not given) | inactive: -19.9%
58 | Cn1c(=O)c(C(=O)O)nn(-c2ccccc2)c1=O | inactive: 18.5%
59 | CCC(=O)NCCc1nc2cc(NC(=O)c3cccc(Br)c3)ccc2n1C | inactive: -14.7%
60 | CCOc1ccc(CNC(=O)CSc2nnc(C)c3c(C)n(-c4ccc(Cl)cc4)nc23)cc1 | inactive: 3.81%
61 | CCN(CC)CCSc1c(C(C)C)cnc2c1c(=O)n(C)c(=O)n2C | inactive: 11.4%
62 | COc1cc(NC(=O)N2CCc3c(sc4c3CCCC4)C2c2ccccc2)cc(OC)c1OC (stereo not given) | inactive: -3.71%
63 | COc1ccc(OC)c2sc(N3CCN(C(=O)c4ccco4)CC3)nc12 | inactive: 1.06%
64 | CC(C)(C)NC(=O)C1CCN(c2nc3ccccc3nc2C(F)(F)F)CC1 | inactive: -25.8%
65 | CCCCc1nnc(SCc2cc(=O)c3cc(F)ccc3[nH]2)n1C | inactive: -7.14%
66 | CCN(CC)C(=O)c1c(NC(=O)c2cccc(C)c2)sc2c1CCC(C)C2 (stereo not given) | inactive: 1.43%
67 | Cc1ccc(NC(=O)c2sc3nc(-c4cccs4)ccc3c2N)cc1F | inactive: 7.58%
68 | O=c1[nH]c2cc(Br)ccc2n2cccc12 | inactive: -25%
69 | O=C(c1cnc(N2CCOCC2)c2ccccc12)N1CCN(c2ccccc2)CC1 | inactive: -2.73%
70 | COc1ccc(CNC(=O)CN2C(=O)CC(c3ccc(C)c(C)c3)=Nc3ccccc32)cc1 | inactive: -0.521%
71 | COc1ccc(C(=O)NCCn2cc(SCc3c(F)cccc3Cl)c3ccccc32)cc1 | inactive: -7.95%
72 | Cc1ccc(-n2ncc3c(NC4CCCCCC4)ncnc32)cc1 | inactive: 11.8%

Row | Compound | activity change, negative = cytotoxicity
73 | COc1ccc(-n2c(SCc3ccccc3)nc3c([nH]c4ccccc43)c2=O)cc1 | inactive: 5.31%
74 | COc1cccc(CNC(=O)Cn2nc(N3CCN(c4ccccc4OC)CC3)ccc2=O)c1 | inactive: -6.86%
75 | CCOc1ccc(-n2c(=O)c3c(C)c(C)sc3n(Cc3ccccc3C)c2=O)cc1 | inactive: 6.95%
76 | COc1ccc(C)cc1NC(=O)CN1C(=O)COc2ccc(S(=O)(=O)N3CCC(C)CC3)cc21 | inactive: 2.66%
77 | Cc1c(Cl)cccc1NC(=O)C(C)n1c(=O)cc(C)c2c(C)nn(-c3ccccc3)c21 (stereo not given) | inactive: 5.5%
78 | CCCCOc1ccc(C2C(=O)N(C3CCCCC3)CC(=O)N2CCCC)cc1 (stereo not given) | inactive: -4.52%
79 | Cc1cc(C)cc(C(=O)N2CC(=O)Nc3ccc(Br)cc3C2c2ccccc2)c1 (stereo not given) | inactive: 4.92%
80 | Cc1ccc(NC(=O)Cn2c(-c3nonc3N)nc3ccccc32)c(Br)c1 | inactive: -0.232%
81 | COc1cccc(CNC(=O)CCc2c(C)c3ccc(O)c(C)c3oc2=O)c1 | inactive: 15%
82 | CCOC(=O)c1noc2ncn(CC(=O)Nc3ccccc3OC)c(=O)c12 | inactive: 11.6%
83 | CN1C(=O)c2[nH]nc(-c3ccc(F)cc3)c2C1c1cccc(O)c1 (stereo not given) | inactive: 0.0186%
84 | Cn1cc(-c2cc3n(n2)CCC(=O)N3CCCC(=O)NCc2ccccc2Cl)c2ccccc21 | inactive: -2.54%
85 | Cc1cc(C)cc(Nc2nc3cc(Cl)c(Cl)cc3nc2-n2nc(C)cc2C)c1 | inactive: 3.55%
86 | CC(C)CCn1c(SCc2cccc(F)c2)nc2ccsc2c1=O | inactive: 1.65%
87 | CN1C(=O)C2(c3ccccc31)N(c1ccc(Br)cc1)C(=O)CS2(=O)=O (stereo not given) | inactive: -2.47%
88 | O=c1[nH]c(C2CCCN(S(=O)(=O)c3ccccc3)C2)nc2c1nnn2Cc1ccc(OC(F)(F)F)cc1 (stereo not given) | inactive: -0.193%
89 | Cc1cc(C)cc(C(=O)n2nc(C)c(S(=O)(=O)N3CCOCC3)c2C)c1 | inactive: -11.8%
90 | O=C(CSc1ncc2c(n1)-c1ccccc1N(Cc1ccc(F)cc1)S2(=O)=O)NCCc1ccccc1 | inactive: 3.79%
91 | C#CC(C)(CC)NC(=O)Cn1nnc(-c2ccc(OCc3c(F)cccc3Cl)cc2)n1 (stereo not given) | inactive: -14.7%
92 | COc1cc(NC(=O)CN(c2cc(C)cc(C)c2)S(=O)(=O)c2c(C)[nH]c(=O)[nH]c2=O)cc(OC)c1 | inactive: 5.42%
93 | Cc1cn2c(=O)cc(COc3ccc(NC(=O)COc4ccccc4)cc3)nc2s1 | inactive: 11.5%
94 | CCOc1ccc(-c2nc3ccccc3c(=O)o2)cc1 | inactive: 2.23%
95 | CCOC(=O)c1c(NC(=O)c2ccc(F)cc2)sc2c1CCC(CC)C2 (stereo not given) | inactive: -13%
